At least one read-out could not be matched to a standard name with certainty. Numbered stars: 1 amine (or outer) side, 2 acyl side, 3 side chain; on linkers, the order of the positions; unused ones are H or OH. Bridge positions count the residues as written; N and C are the ends. Side chains are listed from the residue outwards. Peptide text beside a SMILES is read from it. * marks the point of attachment. C20 diacid = O=C(O)CCCCCCCCCCCCCCCCCCC(=O)*; γGlu = O=C(O)[C@H](CCC(=O)[*:2])N[*:1]
Experiment: ASSAY (III) ThT fibrillation assay for physical stability
Type: physicochemical
How it was run: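 Formulations with 1 μM ThT, pH adjusted as required, incubated at 37 °C with 960 rpm orbital shaking; fluorescence (ex 444/em 485 nm) read every 20 min. Fibrillation reported as mean ThT fluorescence ± SD of 4–8 replicates at time points; polypeptide concentration measured by reverse-phase HPLC before and after, post-centrifugation.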

Q: With CC[C@H](C)[C@H](NC(=O)[C@H](C)NC(=O)CNC(=O)[C@H](Cc1ccccc1)NC(=O)[C@H](CC(N)=O)NC(=O)[C@@H]1CCCN1C(=O)[C@H](CO)NC(=O)[C@H](CO)NC(=O)[C@H](Cc1c[nH]cn1)NC(=O)[C@H](CCCNC(=N)N)NC(=O)[C@H](CC(C)C)NC(=O)[C@H](Cc1ccccc1)NC(=O)[C@H](CC(=O)O)NC(=O)[C@H](C)NC(=O)[C@H](CC(C)C)NC(=O)[C@H](CCCNC(=N)N)NC(=O)[C@H](CCC(N)=O)NC(=O)[C@@H](NC(=O)[C@H](C)NC(=O)[C@@H]1CSSC[C@H](NC(=O)[C@@H](N)CCCCNC(=O)CC[C@H](NC(=O)CCCCCCCCCCCCCCCCCCC(=O)O)C(=O)O)C(=O)N[C@@H](CC(N)=O)C(=O)N[C@@H]([C@@H](C)O)C(=O)N[C@@H](C)C(=O)N[C@@H]([C@@H](C)O)C(=O)N1)[C@@H](C)O)C(=O)N1CCC[C@H]1C(=O)N[C@@H](CO)C(=O)N[C@@H](CO)C(=O)N[C@H](C(=O)N[C@@H](CC(N)=O)C(=O)N[C@H](C(=O)NCC(=O)N1CCC[C@H]1C(=O)N[C@@H](CCC(=O)O)C(=O)N[C@H](C(=O)N[C@@H](Cc1ccc(O)cc1)C(N)=O)[C@@H](C)O)C(C)C)[C@@H](C)O [Example 123] (H-K([γGlu-C20 diacid])CNTATCATQRLADFLRHSSPNFGAIPSSTNVGPETY-NH2; disulfide 2-7; N-terminus assumed) as the compound, how does the “ThT pH 4.0 recovery (%)” value read?
A: 11%

Q: Which “ThT pH 4.0 recovery (%)” value does the source give for CC[C@H](C)[C@H](NC(=O)[C@H](C)NC(=O)CNC(=O)[C@H](Cc1ccccc1)NC(=O)[C@H](CC(N)=O)NC(=O)[C@@H]1CCCN1C(=O)[C@H](CO)NC(=O)[C@H](CO)NC(=O)[C@H](Cc1c[nH]cn1)NC(=O)[C@H](CCCNC(=N)N)NC(=O)[C@H](CC(C)C)NC(=O)[C@H](Cc1ccccc1)NC(=O)[C@H](CCC(=O)O)NC(=O)[C@H](C)NC(=O)[C@H](CC(C)C)NC(=O)[C@H](CCCNC(=N)N)NC(=O)[C@H](CCC(N)=O)NC(=O)[C@@H](NC(=O)[C@H](C)NC(=O)[C@@H]1CSSC[C@H](NC(=O)[C@@H](N)CCCCNC(=O)CC[C@H](NC(=O)CC[C@H](NC(=O)CCCCCCCCCCCCCCCCCCC(=O)O)C(=O)O)C(=O)O)C(=O)N[C@@H](CC(N)=O)C(=O)N[C@@H]([C@@H](C)O)C(=O)N[C@@H](C)C(=O)N[C@@H]([C@@H](C)O)C(=O)N1)[C@@H](C)O)C(=O)N1CCC[C@H]1C(=O)N[C@@H](CO)C(=O)N[C@@H](CO)C(=O)N[C@H](C(=O)N[C@@H](CC(N)=O)C(=O)N[C@H](C(=O)NCC(=O)N1CCC[C@H]1C(=O)N[C@@H](Cc1c[nH]cn1)C(=O)N[C@H](C(=O)N[C@@H](Cc1ccc(O)cc1)C(N)=O)[C@@H](C)O)C(C)C)[C@@H](C)O [Example 124] (H-K([γGlu-γGlu-C20 diacid])CNTATCATQRLAEFLRHSSPNFGAIPSSTNVGPHTY-NH2; disulfide 2-7 (inferred)) here?
A: 90%

Q: Which “ThT pH 4.0 recovery (%)” value does the source give for CC[C@H](C)[C@H](NC(=O)[C@H](C)NC(=O)CNC(=O)[C@H](Cc1ccccc1)NC(=O)[C@H](CC(N)=O)NC(=O)[C@@H]1CCCN1C(=O)[C@H](CO)NC(=O)[C@H](CO)NC(=O)[C@H](Cc1c[nH]cn1)NC(=O)[C@H](CCCNC(=N)N)NC(=O)[C@H](CC(C)C)NC(=O)[C@H](Cc1ccccc1)NC(=O)[C@H](CCC(=O)O)NC(=O)[C@H](C)NC(=O)[C@H](CC(C)C)NC(=O)[C@H](CCCNC(=N)N)NC(=O)[C@H](CCC(N)=O)NC(=O)[C@@H](NC(=O)[C@H](C)NC(=O)[C@@H]1CSSC[C@H](NC(=O)[C@@H](N)CCCCNC(=O)CC[C@H](NC(=O)CC[C@H](NC(=O)CCCCCCCCCCCCCCCCCCC(=O)O)C(=O)O)C(=O)O)C(=O)N[C@@H](CC(N)=O)C(=O)N[C@@H]([C@@H](C)O)C(=O)N[C@@H](C)C(=O)N[C@@H]([C@@H](C)O)C(=O)N1)[C@@H](C)O)C(=O)N1CCC[C@H]1C(=O)N[C@@H](CO)C(=O)N[C@@H](CO)C(=O)N[C@H](C(=O)N[C@@H](CC(N)=O)C(=O)N[C@H](C(=O)NCC(=O)N1CCC[C@H]1C(=O)N[C@@H](CCC(=O)O)C(=O)N[C@H](C(=O)N1CCC[C@H]1C(N)=O)[C@@H](C)O)C(C)C)[C@@H](C)O [Example 125] (H-K([γGlu-γGlu-C20 diacid])CNTATCATQRLAEFLRHSSPNFGAIPSSTNVGPETP-NH2; disulfide 2-7 (inferred); N-terminus assumed) here?
A: 24%

Source: US9023789B2, “Amylin analogs and pharmaceutical compositions thereof” (Novo Nordisk A/S, priority 2012, dated 2015)
